Source: PMC4336329 (PLoS ONE, 2015)
Among all 310,000 compounds or so, about 14,000 (4.5%) showed an effect of 50% or more. The effect is printed as a negative number. The list shows a part of the results.

molecular target: human ether-à-go-go-related gene (hERG) potassium channel (human, UniProt Q12809); assay: primary screen, population patch clamp on CHO cells stably expressing hERG
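Further: peak tail current of the secondary pulse compared with the same well before compound.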

Chain of human ether-à-go-go-related gene (hERG) potassium channel (Q12809 whole entry, looked up): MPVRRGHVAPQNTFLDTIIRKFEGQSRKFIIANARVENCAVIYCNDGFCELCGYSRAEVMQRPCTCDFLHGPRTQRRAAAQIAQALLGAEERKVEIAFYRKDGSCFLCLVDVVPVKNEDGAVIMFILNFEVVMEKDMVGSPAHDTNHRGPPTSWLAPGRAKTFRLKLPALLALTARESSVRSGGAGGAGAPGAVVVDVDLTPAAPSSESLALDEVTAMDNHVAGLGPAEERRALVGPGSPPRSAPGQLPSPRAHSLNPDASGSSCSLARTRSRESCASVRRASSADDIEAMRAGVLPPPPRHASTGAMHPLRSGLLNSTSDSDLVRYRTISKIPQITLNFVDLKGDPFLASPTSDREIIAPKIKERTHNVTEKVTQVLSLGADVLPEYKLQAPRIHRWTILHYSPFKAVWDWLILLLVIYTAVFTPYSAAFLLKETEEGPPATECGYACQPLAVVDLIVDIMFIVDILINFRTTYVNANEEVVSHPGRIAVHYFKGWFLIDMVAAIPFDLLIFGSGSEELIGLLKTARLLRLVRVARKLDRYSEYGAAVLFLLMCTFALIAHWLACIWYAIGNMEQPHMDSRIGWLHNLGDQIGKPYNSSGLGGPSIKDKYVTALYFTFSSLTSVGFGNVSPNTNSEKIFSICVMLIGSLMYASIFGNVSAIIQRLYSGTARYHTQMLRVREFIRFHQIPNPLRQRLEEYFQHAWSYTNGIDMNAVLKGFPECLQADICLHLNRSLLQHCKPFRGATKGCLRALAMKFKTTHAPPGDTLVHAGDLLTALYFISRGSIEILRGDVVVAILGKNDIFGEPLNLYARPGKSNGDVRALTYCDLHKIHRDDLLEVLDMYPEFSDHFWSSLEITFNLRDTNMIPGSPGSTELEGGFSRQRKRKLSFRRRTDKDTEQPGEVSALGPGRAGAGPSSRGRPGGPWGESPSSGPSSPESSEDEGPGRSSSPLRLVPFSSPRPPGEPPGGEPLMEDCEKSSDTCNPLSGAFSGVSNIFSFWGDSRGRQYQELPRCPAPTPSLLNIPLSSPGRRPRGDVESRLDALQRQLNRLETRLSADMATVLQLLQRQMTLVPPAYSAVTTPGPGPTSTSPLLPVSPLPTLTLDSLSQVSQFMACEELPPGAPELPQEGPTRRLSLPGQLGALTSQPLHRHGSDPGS

| Compound | hERG current change (%, negative = inhibition) at 10uM |
| --- | --- |
| CCCC(NS(=O)(=O)c1ccc(OC)cc1)C(=O)O (centres unmarked) | 13% |
| Br.COc1ccc(-c2nc3n(c2C)CCC3)cc1 | -6.52% |
| CC(C)C[C@@H](CO)NC(=O)CC[C@H](NC(=O)OC(C)(C)C)C(=O)N(Cc1ccccc1)Cc1ccccc1 | 5.32% |
| Nc1nnnn1/N=C/c1ccc(Cl)cc1 | 32.6% |
| CC(NC(=O)NCc1cccnc1)(C(F)(F)F)C(F)(F)F | 5.59% |
| CCOC(=O)Nc1cccc(C(=O)O)c1 | 8.63% |
| O=C(Nc1ccccc1N1CCOCC1)c1ccc2c(c1)OCO2 | -7.91% |
| O=C(NCc1cccnc1)c1cccc(S(=O)(=O)N2CCOCC2)c1 | 10% |
| N#CC(C#N)=C(Nc1ccc(F)cc1)SCc1cccc(F)c1 | -10.6% |
| O=c1oc2ccccc2c(O)c1C(c1ccccn1)c1c(O)c2ccccc2oc1=O | 16.3% |
| N#Cc1ccc(C(=O)NCC2CCCCC2)cc1 | -21.6% |
| CC(=O)c1cccc(N(C(=O)CS(=O)CC(=O)Nc2ccc(F)cc2)C(C(=O)NC2CCCCC2)c2ccc(C)o2)c1 (centres unmarked) | 2.01% |
| CCCNC(=O)CSc1nc(COc2ccccc2)nc2ccccc12 | -13.4% |
| O=C(Nc1ccc(F)cc1)C1CC(=O)N(Cc2ccco2)C1 (centres unmarked) | 0.734% |
| CCc1ccc(C(=O)COC(=O)CNC(=O)c2ccc(Br)o2)cc1 | -64% |
| CC(=O)c1cccc(NC(=O)CCCN(C)S(=O)(=O)c2ccc(F)cc2)c1 | -2.1% |
| CCc1nn(C(C)C(=O)NCc2ccc(Cl)cc2)c(=O)c2cc3occc3n12 (centres unmarked) | -26.4% |
| CSCC(=O)NC1CCCN(C2Cc3ccccc3C2)C1 (centres unmarked) | -5.38% |
| O=C(CN1CCN(c2ccccn2)CC1)NC1CCCCC1 | -12.7% |
| CCOC(=O)N1CCC(Nc2nc(OC)nc(OC)n2)CC1 | 3.57% |
| CCOc1ccccc1NC(=O)Nc1ccc(OC)nc1 | 14.7% |
| CCn1nc(C)c(Oc2ccccc2O)c1C | -1.54% |
| CCNC(=S)N1CCC(NC(=O)c2ccco2)CC1 | 6.16% |

| Compound | hERG current change (%, negative = inhibition) at 10uM |
| --- | --- |
| Cl.O=C(/C=C/c1ccc(Br)o1)NCCCN1CCOCC1 | 7.91% |
| CC(C)C(NC(=O)c1ccccc1)C(=O)N/N=C\c1ccco1 (centres unmarked) | 8.7% |
| Cc1ccc(S(=O)(=O)N/N=c2\sc3ccccc3n2C)cc1 | 8.7% |
| CN(CC1CCOCC1)C(=O)CC1C(=O)NCCN1Cc1ccc(F)c(F)c1 (centres unmarked) | 19.5% |
| c1ccc(-c2nccc(-c3ccco3)n2)nc1 | 26% |
| O=C(NC(=S)N1CCN(C(c2ccccc2)c2ccccc2)CC1)c1ccc(S(=O)(=O)N2CCOCC2)cc1 | -9.25% |
| COc1ccccc1-n1c(=O)c2c3c(sc2n2c(=S)[nH]nc12)CCC3 | 21.1% |
| O=C(c1cc(=O)c2ccccc2o1)N1CCN(c2cccc(Cl)c2)CC1 | -56.4% |
| Cc1cccc(-c2nnc3sc(-c4ccccc4C)nn23)c1 | 7.95% |
| CCCC(c1nnnn1CC(=O)OCC)N(Cc1cc2ccc(C)cc2[nH]c1=O)C1CCCC1 (centres unmarked) | 8.83% |
| COc1ccc(C(C)=O)cc1COC(=O)c1c(C)nn(-c2ccccc2)c1C | -8.58% |
| COc1cccc(CN(CC(=O)NC2CCCC2)C(=O)Cn2nnc(-c3cccs3)n2)c1 | -18.3% |
| Cc1nnsc1S(=O)(=O)c1ccccc1 | 10.5% |
| O=c1[nH]c(/C=C\c2ccc(O)c(Cl)c2)nc(O)c1[N+](=O)[O-] | 18.8% |
| Cc1cc(=O)oc2cc(OC(C)C(=O)NCCCn3ccnc3)ccc12 (centres unmarked) | 9.44% |
| CN(CC(=O)Nc1cccc(F)c1)C(=O)C1=COCCO1 | 9.81% |
| O=C(Nc1ccc2ccccc2c1)C(c1ccccc1)C1CCCC1 (centres unmarked) | 24.6% |
| C/C(=N\N1CCCCCC1)c1c(O)n(-c2ccccc2)c(=O)[nH]c1=O | -13.9% |
| CCOc1ccccc1NC(=O)CCSc1nc2n[nH]c(C)c2c(=N)n1-c1ccccc1Cl | -2.25% |
| Cc1ccc(-c2c(C#N)c(N)n(-c3ccc(C)cc3)c(=O)c2C#N)cc1 | 8.01% |
| CCOC(=O)c1cc(-c2ccccc2)sc1NC(=O)C(C)Sc1nnnn1C (centres unmarked) | 0.647% |
| O=C(c1ccccc1F)N1CCN(Cc2nc3sc4c(c3c(=O)[nH]2)CCCC4)CC1 | -81.6% |
| CCOCCc1nnc(NC(=O)Cc2ccc(Br)cc2)s1 | -5.23% |

| Compound | hERG current change (%, negative = inhibition) at 10uM |
| --- | --- |
| Cc1nnc(SCC(=O)Nc2ccc3c(c2)OCO3)o1 | 14.6% |
| Cc1ccc(-n2c(Cc3cccn3C)nnc2SCC(=O)N2CCc3ccccc32)cc1 | -14.8% |
| Cc1ccc(NC(=O)Cn2cnc3c(nnn3Cc3ccc(F)cc3)c2=O)cc1 | 17.1% |
| CCOc1ccc(N2C(=O)CC(Cc3cc(C)cc(C)c3)C2=O)cc1 (centres unmarked) | 16% |
| O=C(O)Cc1ccc(O)c(F)c1 | 5.72% |
| Cc1c(NP(=O)(Oc2ccccc2F)Oc2ccccc2F)c(=O)n(-c2ccccc2)n1C | -4.76% |
| COc1ccc(CNC(=O)C(=O)NCCC2CCCCN2S(=O)(=O)c2cccs2)cc1 (centres unmarked) | -8.17% |
| NNC(=O)C1SCCN1S(=O)(=O)c1ccc(Cl)cc1 (centres unmarked) | 4.21% |
| CN(C)S(=O)(=O)c1ccc(C(=O)Nc2ccn(C)n2)cc1 | 2.07% |
| O=C(c1ccc(NS(=O)(=O)c2cccs2)cc1)N1CCCCC1 | -4.46% |
| O=C1/C(=C/c2ccncc2)SC(=S)N1Cc1ccccc1 | 2.45% |
| CCn1c(O)c(C#N)c(C)cc1=O | 20.1% |
| CCCNC(=O)c1ccc(N2CCC3(CC2)CC(c2ccc(Cl)cc2)=NO3)c([N+](=O)[O-])c1 | -74.7% |
| Nc1cccc(N2C(=O)c3cccc4c(N)ccc(c34)C2=O)c1 | 17% |
| COc1ccc(OC)c(S(=O)(=O)NCc2cccnc2)c1 | 4.09% |
| CCOC(=O)C1CCCN(S(=O)(=O)c2c(C(=O)N3CCCCC3)c(C)n(C)c2C)C1 (centres unmarked) | 21% |
| COC(=O)CSc1nc2sc3c(c2c(=O)n1-c1ccccc1)CCN(C)C3 | -6.82% |
| Cc1ccc(Nc2nc(=O)c3cc([N+](=O)[O-])ccc3s2)cc1 | 15% |
| COc1cccc(-n2cnnc2SC(C)C(=O)NC2CCCC2)c1 (centres unmarked) | -17.3% |
| COc1ccc(OC)c(NC(=O)COC(=O)CCC2CCCC2)c1 | 5.67% |
| COc1ccc(OCc2cc(C(=O)NC3CCc4ccccc43)no2)c(Cl)c1 (centres unmarked) | 8.2% |
| CCOC(=O)C(=O)NCC(c1cccs1)S(=O)(=O)c1ccc(C)cc1 (centres unmarked) | -27.7% |
| Cc1ccc(S(=O)(=O)Nc2ccc(=O)n(Cc3ccc(Cl)c(Cl)c3)c2)cc1 | 9.65% |

| Compound | hERG current change (%, negative = inhibition) at 10uM |
| --- | --- |
| Cc1cccc(C)c1NC(=O)C1(NC(=O)C2CCCN2C(=O)OC(C)(C)C)CCCCC1 (centres unmarked) | -24.7% |
| CCOC(=O)c1ccccc1NC(=O)N1CCn2c(C)ccc2C1CC (centres unmarked) | 2.71% |
| Cn1ccsc1=NC(=O)c1ccc(S(C)(=O)=O)c([N+](=O)[O-])c1 | -4.76% |
| Cc1ccc(-c2cc(-c3ccccc3)cc(-c3ccccc3)[n+]2-c2ccccc2C(=O)O)cc1.[O-][Cl+3]([O-])([O-])[O-] | -21.5% |
| Cc1cc(NC(=O)CSc2c3c(nc4ccccc24)CCC3)no1 | -7.62% |
| O=c1c(C(c2nnnn2C2CCCCC2)N2CCCCC2)coc2ccc(Cl)cc12 (centres unmarked) | 0.931% |
| CCOC(=O)c1c(CN(CC)CC)n(-c2ccccc2)c2ccc(O)cc12 | -66.7% |
| Cc1ccc(Cn2c(N3CCCCCC3)nc3c2c(=O)[nH]c(=O)n3C)cc1 | 0.362% |
| CCCCCCn1cc(C(=O)O)c(=O)c2cc(F)c(N3CCN(C)CC3)cc21 | -12.4% |
| CN(C)S(=O)(=O)N1CCN(CC(O)COc2ccc(C(=O)c3ccccc3)cc2)CC1 (centres unmarked) | -70.2% |
| C=CCN(C(=O)c1csnn1)C(C(=O)NCc1ccccc1)c1cccs1 (centres unmarked) | -5.05% |
| Oc1ccc[n+](/C=C\c2ccccc2)c1.[Br-] | 4.32% |
| CC(=O)N(C)c1ccc(OCC(O)CN(c2ccccc2C)S(=O)(=O)c2ccc(C)cc2)cc1 (centres unmarked) | -34.4% |
| CCN(CC1COc2ccccc2O1)C(=S)Nc1ccc(F)cc1 (centres unmarked) | -14.4% |
| COc1cccc(CN(C)C(=O)CSCC(=O)Nc2cccc(C)c2)c1OC | -15.1% |
| Cc1ccccc1-n1c(SCc2c(C)noc2C)nnc1-c1cccnc1 | -9.48% |
| Cc1cc([N+](=O)[O-])nn1CC(=O)Nc1nc2ccccc2s1 | -48.3% |
| CCCn1c(=O)c(C(=O)NCc2ccc(OC)c(OC)c2)c(O)c2ccccc21 | 11.5% |
| CN1CCN(Cc2nc3ccccc3c(=O)n2CC#N)CC1 | -2.87% |
| COc1ccc(N2CCN(C(=O)Cc3ccc(Br)cc3)CC2)cc1 | -20.1% |
